Results as given in the supplement of paper PMC12217912.
The other results are listed elsewhere or left out. The full chains were built here from the parent and the listed change. Inactive controls read about 0.05.

B1: TEV protease; numbered along this chain (parent)
chain: MGESLFKGPRDYNPISSSICHLTNESDGHTTSLYGIGFGPFIITNKHLFRRNNGTLVVQSLHGVFKVKDTTTLQQHLVDGRDMIIIRMPKDFPPFPQKLKFREPQREERICLVTTNFQTKSMSSMVSDTSCTFPSGDGIFWKHWIQTKDGQCGSPLVSTRDGFIVGIHSASNFTNTNNYFTSVPKNFMELLTNQEAQQWVSGWRLNADSVLWGGHKVFMVKPEEPFQPVKEATQL

Variants of: B1
Test: raw area under fraction-flipped curve 0-4 h after induction (AUC4h, not background-subtracted), DNA-recorder readout of cleavage of the substrate (dimensionless); higher = more cleavage of the substrate by the protease variant
Details: temperature: 34 °C; time window: 0-4 h after rhamnose induction
Procedure: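 In vivo DNA recorder in E. coli TOP10(DE3) ΔrhaA at 34 °C. Each TEVp single-site mutant (parent TEVp 0) is paired with a single-site variant of the 7-mer TEVs (canonical ENLYFQ|S). The substrate sits between flexible linkers in a Bxb1-sfGFP-TEVs-SsrA fusion, so cleavage stabilises Bxb1 and speeds flipping of a recombination array, read by NGS. The value is the raw area under the fraction-flipped curve over 0-4 h after rhamnose induction (AUC4h), with ≥20 reads per time point. It is not background-subtracted; inactive controls average about 0.047.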
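Further: Bxb1 expression induced with 0.2% (w/v) L-rhamnose at OD600 near 0.5, cultures sampled hourly, flipped fraction per protease–substrate barcode pair counted by paired-end Illumina sequencing.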

Variant	area with substrate EALYFQS	area with substrate EFLYFQS	area with substrate EHLYFQS	area with substrate EILYFQS	area with substrate EMLYFQS	area with substrate ESLYFQS	area with substrate ETLYFQS	area with substrate EWLYFQS	area with substrate EYLYFQS	area with substrate EELYFQS
MGESLFKGPRDYNPISSSICHLTNESDGHTTSLYGIGFGPFIITNKHLFRRNNGTLVVQSLHGVFKVKDTTTLQQHLVDGRDMIIIRMPKDFPPFPQKLKFREPQREERICLVTTNFQTKSMSSMVSDTSCTFPSGDGIFWKHWIQTKDGQCGSPLVSTRDGFIVGIHSASNFTNTNNYFTSVPKNFMELLTNYEAQQWVSGWRLNADSVLWGGHKVFMVKPEEPFQPVKEATQL [Q194Y]	0.115	0.114	0.117	0.112	0.152	0.1	0.116	0.103	0.105	
MGESLFKGPRDYNPISSSICHLTNESDGHTTSLYGIGFGPFIITNKHLFRRNNGTLVVQSLHGVFKVKDTTTLQQHLVDGRDMIIIRMPKDFPPFPQKLKFREPQREERICLVTTNFQTKSMSSMVSDTSCTFPSGDGIFWKHWIQTKDGQCGSPLVSTRDGFIVGIHSASNFTNTNNYFTSVPKNFMELLTNQEAMQWVSGWRLNADSVLWGGHKVFMVKPEEPFQPVKEATQL [Q197M]	0.13			0.0952		0.113				0.128
MGESLFKGPRDYNPISSSICHLTNESDGHTTSLYGIGFGPFIITNKHLFRRNNGTLVVQSLHGVFKVKDTTTLQQHLVDGRDMIIIRMPKDFPPFPQKLKFREPQREERICLVTTNFQTKSMSSMVSDTSCTFPSGDGIFWKHWIQTKDGQCGSPLVSTRDGFIVGIHSASNFTNTNNYFTSVPKNFMELLTNQEATQWVSGWRLNADSVLWGGHKVFMVKPEEPFQPVKEATQL [Q197T]	0.136					0.157		0.121		
MGESLFKGPRDYNPISSSICHLTNESDGHTTSLYGIGFGPFIITNKHLFRRNNGTLVVQSLHGVFKVKDTTTLQQHLVDGRDMIIIRMPKDFPPFPQKLKFREPQREERICLVTTNFQTKSMSSMVSDTSCTFPSGDGIFWKHWIQTKDGQCGSPLVSTRDGFIVGIHSASNFTNTNNYFTSVPKNFMELLTNQEAQMWVSGWRLNADSVLWGGHKVFMVKPEEPFQPVKEATQL [Q198M]	0.103	0.0947	0.124		0.112	0.103				
MGESLFKGPRDYNPISSSICHLTNESDGHTTSLYGIGFGPFIITNKHLFRRNNGTLVVQSLHGVFKVKDTTTLQQHLVDGRDMIIIRMPKDFPPFPQKLKFREPQREERICLVTTNFQTKSMSSMVSDTSCTFPSGDGIFWKHWIQTKDGQCGSPLVSTRDGFIVGIHSASNFTNTNNYFTSVPKNFMELLTNQEAQQWVSDWRLNADSVLWGGHKVFMVKPEEPFQPVKEATQL [G202D]	0.0752		0.0796	0.0663		0.0594			0.0703	
MGESLFKGPRDYNPISSSICHLTNESDGHTTSLYGIGFGPFIITNKHLFRRNNGTLVVQSLHGVFKVKDTTTLQQHLVDGRDMIIIRMPKDFPPFPQKLKFREPQREERICLVTTNFQTKSMSSMVSDTSCTFPSGDGIFWKHWIQTKDGQCGSPLVSTRDGFIVGIHSASNFTNTNNYFTSVPKNFMELLTNQEAQQWVSPWRLNADSVLWGGHKVFMVKPEEPFQPVKEATQL [G202P]	0.0886	0.0575	0.064	0.0417	0.0687	0.0735		0.0473		0.0598
MGESLFKGPRDYNPISSSICHLTNESDGHTTSLYGIGFGPFIITNKHLFRRNNGTLVVQSLHGVFKVKDTTTLQQHLVDGRDMIIIRMPKDFPPFPQKLKFREPQREERICLVTTNFQTKSMSSMVSDTSCTFPSGDGIFWKHWIQTKDGQCGSPLVSTRDGFIVGIHSASNFTNTNNYFTSVPKNFMELLTNQEAQQWVSGMRLNADSVLWGGHKVFMVKPEEPFQPVKEATQL [W203M]	0.0791			0.0702	0.0703	0.0805		0.0677		
MGESLFKGPRDYNPISSSICHLTNESDGHTTSLYGIGFGPFIITNKHLFRRNNGTLVVQSLHGVFKVKDTTTLQQHLVDGRDMIIIRMPKDFPPFPQKLKFREPQREERICLVTTNFQTKSMSSMVSDTSCTFPSGDGIFWKHWIQTKDGQCGSPLVSTRDGFIVGIHSASNFTNTNNYFTSVPKNFMELLTNQEAQQWVSGWRINADSVLWGGHKVFMVKPEEPFQPVKEATQL [L205I]	0.121				0.088					
MGESLFKGPRDYNPISSSICHLTNESDGHTTSLYGIGFGPFIITNKHLFRRNNGTLVVQSLHGVFKVKDTTTLQQHLVDGRDMIIIRMPKDFPPFPQKLKFREPQREERICLVTTNFQTKSMSSMVSDTSCTFPSGDGIFWKHWIQTKDGQCGSPLVSTRDGFIVGIHSASNFTNTNNYFTSVPKNFMELLTNQEAQQWVSGWRKNADSVLWGGHKVFMVKPEEPFQPVKEATQL [L205K]	0.0585			0.0587	0.0668	0.0633				
MGESLFKGPRDYNPISSSICHLTNESDGHTTSLYGIGFGPFIITNKHLFRRNNGTLVVQSLHGVFKVKDTTTLQQHLVDGRDMIIIRMPKDFPPFPQKLKFREPQREERICLVTTNFQTKSMSSMVSDTSCTFPSGDGIFWKHWIQTKDGQCGSPLVSTRDGFIVGIHSASNFTNTNNYFTSVPKNFMELLTNQEAQQWVSGWRLYADSVLWGGHKVFMVKPEEPFQPVKEATQL [N206Y]	0.0861				0.0894				0.0908	0.0887

Same assay, conditions: temperature: 34 °C; time window: 0-4 h after rhamnose induction

Variant	area with substrate EVLYFQS	area with substrate EGLYFQS	area with substrate EKLYFQS	area with substrate ELLYFQS	area with substrate ERLYFQS	area with substrate EQLYFQS	area with substrate EDLYFQS	area with substrate EPLYFQS	area with substrate ECLYFQS
MGESLFKGPRDYNPISSSICHLTNESDGHTTSLYGIGFGPFIITNKHLFRRNNGTLVVQSLHGVFKVKDTTTLQQHLVDGRDMIIIRMPKDFPPFPQKLKFREPQREERICLVTTNFQTKSMSSMVSDTSCTFPSGDGIFWKHWIQTKDGQCGSPLVSTRDGFIVGIHSASNFTNTNNYFTSVPKNFMELLTNQEAMQWVSGWRLNADSVLWGGHKVFMVKPEEPFQPVKEATQL [Q197M]	0.107								
MGESLFKGPRDYNPISSSICHLTNESDGHTTSLYGIGFGPFIITNKHLFRRNNGTLVVQSLHGVFKVKDTTTLQQHLVDGRDMIIIRMPKDFPPFPQKLKFREPQREERICLVTTNFQTKSMSSMVSDTSCTFPSGDGIFWKHWIQTKDGQCGSPLVSTRDGFIVGIHSASNFTNTNNYFTSVPKNFMELLTNQEATQWVSGWRLNADSVLWGGHKVFMVKPEEPFQPVKEATQL [Q197T]	0.0994	0.108	0.099	0.0867	0.109				
MGESLFKGPRDYNPISSSICHLTNESDGHTTSLYGIGFGPFIITNKHLFRRNNGTLVVQSLHGVFKVKDTTTLQQHLVDGRDMIIIRMPKDFPPFPQKLKFREPQREERICLVTTNFQTKSMSSMVSDTSCTFPSGDGIFWKHWIQTKDGQCGSPLVSTRDGFIVGIHSASNFTNTNNYFTSVPKNFMELLTNQEAQMWVSGWRLNADSVLWGGHKVFMVKPEEPFQPVKEATQL [Q198M]	0.0891	0.1	0.135	0.0799	0.106	0.106			
MGESLFKGPRDYNPISSSICHLTNESDGHTTSLYGIGFGPFIITNKHLFRRNNGTLVVQSLHGVFKVKDTTTLQQHLVDGRDMIIIRMPKDFPPFPQKLKFREPQREERICLVTTNFQTKSMSSMVSDTSCTFPSGDGIFWKHWIQTKDGQCGSPLVSTRDGFIVGIHSASNFTNTNNYFTSVPKNFMELLTNQEAQQWVSDWRLNADSVLWGGHKVFMVKPEEPFQPVKEATQL [G202D]		0.0573	0.0782	0.0878					
MGESLFKGPRDYNPISSSICHLTNESDGHTTSLYGIGFGPFIITNKHLFRRNNGTLVVQSLHGVFKVKDTTTLQQHLVDGRDMIIIRMPKDFPPFPQKLKFREPQREERICLVTTNFQTKSMSSMVSDTSCTFPSGDGIFWKHWIQTKDGQCGSPLVSTRDGFIVGIHSASNFTNTNNYFTSVPKNFMELLTNQEAQQWVSPWRLNADSVLWGGHKVFMVKPEEPFQPVKEATQL [G202P]	0.0738		0.064		0.0572				
MGESLFKGPRDYNPISSSICHLTNESDGHTTSLYGIGFGPFIITNKHLFRRNNGTLVVQSLHGVFKVKDTTTLQQHLVDGRDMIIIRMPKDFPPFPQKLKFREPQREERICLVTTNFQTKSMSSMVSDTSCTFPSGDGIFWKHWIQTKDGQCGSPLVSTRDGFIVGIHSASNFTNTNNYFTSVPKNFMELLTNQEAQQWVSGMRLNADSVLWGGHKVFMVKPEEPFQPVKEATQL [W203M]	0.0577			0.0667			0.0904		
MGESLFKGPRDYNPISSSICHLTNESDGHTTSLYGIGFGPFIITNKHLFRRNNGTLVVQSLHGVFKVKDTTTLQQHLVDGRDMIIIRMPKDFPPFPQKLKFREPQREERICLVTTNFQTKSMSSMVSDTSCTFPSGDGIFWKHWIQTKDGQCGSPLVSTRDGFIVGIHSASNFTNTNNYFTSVPKNFMELLTNQEAQQWVSGWRINADSVLWGGHKVFMVKPEEPFQPVKEATQL [L205I]		0.0951	0.0929		0.0728			0.109	
MGESLFKGPRDYNPISSSICHLTNESDGHTTSLYGIGFGPFIITNKHLFRRNNGTLVVQSLHGVFKVKDTTTLQQHLVDGRDMIIIRMPKDFPPFPQKLKFREPQREERICLVTTNFQTKSMSSMVSDTSCTFPSGDGIFWKHWIQTKDGQCGSPLVSTRDGFIVGIHSASNFTNTNNYFTSVPKNFMELLTNQEAQQWVSGWRKNADSVLWGGHKVFMVKPEEPFQPVKEATQL [L205K]	0.0474		0.0687			0.0756		0.0562	0.0621
MGESLFKGPRDYNPISSSICHLTNESDGHTTSLYGIGFGPFIITNKHLFRRNNGTLVVQSLHGVFKVKDTTTLQQHLVDGRDMIIIRMPKDFPPFPQKLKFREPQREERICLVTTNFQTKSMSSMVSDTSCTFPSGDGIFWKHWIQTKDGQCGSPLVSTRDGFIVGIHSASNFTNTNNYFTSVPKNFMELLTNQEAQQWVSGWRLYADSVLWGGHKVFMVKPEEPFQPVKEATQL [N206Y]				0.0735	0.0926				0.0614
